Measurements from the supplement of paper PMC3334620.
Whole data set: some 33,000 sequences, median “E-score (-0.5 to 0.5)” near -0.054, cut for the highest 2% near 0.39. Some of the results follow.

molecular target: Ylr278c (UniProt Q05854); test: PBM E-score (8-mer binding enrichment) (E-score (-0.5 to 0.5)); higher = stronger / more preferred TF binding; most listed sequences are background and not binding sites; settings: protein concentration: 200 nM; construct: GST-DNA-binding domain
Summary of the method: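 For each ungapped eight-base word taken together with its reverse complement, the Universal PBM Analysis Suite assigned an E-score. Binding data came from GST-tagged yeast transcription factors, applied at about 100-200 nM, on universal all-10-mer Agilent arrays made double-stranded by primer extension. Fluorescent anti-GST marked bound protein, and scans were normalised with masliner.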

| Sequence | PBM E-score |
| --- | --- |
| AACAATAA | 0.0704 |
| ATCACCAT | 0.0294 |
| CATTTAAC | -0.136 |
| CCCAAGGA | -0.0659 |
| CTCGCCAC | 0.0357 |
| GTATCGAC | -0.117 |
| ATTCACCG | 0.304 |
| GCAACACA | -0.0231 |
| AACCATGT | -0.0962 |
| ACCGAATG | -0.00202 |
| AAACGCCG | 0.412 |
| AGTCTAAC | -0.13 |
| ACCTCTGA | -0.0775 |
| GAGAGGGC | -0.151 |
| AACCTGGC | -0.148 |
| CGAGATGA | 0.0382 |
| CCCCTGGC | -0.054 |
| CAGTGAAG | -0.229 |
| ATCTTGGG | -0.119 |
| GTAGAGTA | -0.219 |
| GGTCACAA | -0.184 |
| GACTAATC | 0.171 |
| GTCCCAAC | -0.209 |

| Sequence | PBM E-score |
| --- | --- |
| CAAGGTGC | 0.0222 |
| ACTAATTC | 0.0457 |
| AAAGGCCC | -0.0211 |
| AGCATTCA | -0.164 |
| GATGCATC | 0.121 |
| ATCCATAA | 0.0106 |
| AGTGATTC | -0.154 |
| ACGGTAAT | 0.00092 |
| ACATCAGA | -0.223 |
| AACTCGGG | 0.182 |
| AGATGTCG | -0.0161 |
| ACCCGCGA | -0.00707 |
| CATGGTCG | -0.00982 |
| GGCAACCC | -0.0105 |
| AGGCGGCA | 0.00545 |
| CCTAAGAC | -0.228 |
| CAACACTA | -0.00728 |
| AACACATT | -0.056 |
| AGTTGTCG | 0.0744 |
| GAAATGGA | 0.0716 |
| ACTATGCT | -0.144 |
| ACAAGGCG | 0.0356 |
| TCGCGCAA | 0.0618 |

| Sequence | PBM E-score |
| --- | --- |
| TTAAATAA | 0.118 |
| CGTGGAGC | 0.0622 |
| CAGGAATG | -0.264 |
| ATCCGTAA | 0.155 |
| GAGCAGAA | -0.0303 |
| CGCGCCTA | 0.16 |
| GGATAGGA | 0.0107 |
| ACTTGGAT | -0.121 |
| TGAGTAAA | -0.173 |
| AAAAAAAT | 0.0804 |
| TGGTAACA | -0.169 |
| GAAAACGA | -0.00859 |
| CTCAGAGC | -0.346 |
| AAATTACC | 0.0177 |
| AGAGTAGC | -0.209 |
| GAGAAAAC | 0.0753 |
| AATATAGT | -0.0246 |
| ATATGAAA | -0.0164 |
| ATAATTGG | -0.0418 |
| TATCAGAA | 0.0195 |
| CTGCAGTC | -0.196 |
| TCCGACCA | 0.331 |
| ATAACCGG | 0.306 |

| Sequence | PBM E-score |
| --- | --- |
| AGACTATG | -0.158 |
| ATGAGTTC | 0.019 |
| GTATTATA | 0.102 |
| ACGGGCAG | -0.0679 |
| CCACAGTA | -0.247 |
| ATTTGTTA | 0.0214 |
| GAGATTAA | -0.0135 |
| AGAGGCTC | -0.16 |
| CATTAATG | -0.0565 |
| GGGACTAC | -0.0279 |
| CTTGGTAC | -0.148 |
| AATATGCC | -0.0168 |
| CTTTTCAC | -0.102 |
| CTGATTAA | 0.00608 |
| CGAGCGGA | 0.381 |
| CAGTAATA | -0.0469 |
| CAATGCAC | -0.105 |
| CATAGATG | -0.18 |
| GGAGAGCA | -0.00586 |
| GAGGGCGC | 0.0234 |
| GACGCAGA | 0.0423 |
| GAGTTAAA | -0.051 |
| GGAAGGAC | 0.0596 |

| Sequence | PBM E-score |
| --- | --- |
| CCTGGGTC | -0.0105 |
| AGTTGATG | -0.201 |
| AAGTACAG | -0.365 |
| ATCTGAAG | -0.189 |
| AATCGTTC | -0.109 |
| AAATTGCT | -0.0913 |
| CGCAGCAA | -0.169 |
| ACCCACAC | 0.00637 |
| GGGCGCTA | -0.0584 |
| ATCCCAAG | 0.0131 |
| CGTCCAAG | 0.00044 |
| ATCTTATC | 0.00826 |
| TGTCTAAA | -0.172 |
| GTAGTCCA | -0.0814 |
| CTCCTCAC | -0.185 |
| GCGCGGCA | 0.16 |
| TACCGTAA | 0.0882 |
| GCTATCGA | -0.00696 |
| AAAGGGTC | -0.0323 |
| AGGGCACG | -0.0859 |
| AGTCCAAT | -0.0114 |
| TCAACACA | -0.151 |
| CTCAATAA | -0.129 |

| Sequence | PBM E-score |
| --- | --- |
| CCTCGTGC | -0.0283 |
| CCTCGGAA | 0.39 |
| CAAGCGAC | -0.00016 |
| ACTCATAG | -0.275 |
| GCTTAGCA | -0.0298 |
| AACGATAG | -0.0537 |
| ATACGTTA | -0.255 |
| CTAGCCCC | 0.0452 |
| ATCAGAGC | -0.0306 |
| GCACTAGA | -0.16 |
| ACCCTCTA | -0.192 |
| ACATGGAT | -0.11 |
| AACTGCGT | -0.252 |
| CATCTTTA | -0.0964 |
| AAAATTAT | 0.214 |
| ATAGTCCC | -0.153 |
| AACGACAC | -0.0599 |
| ATCCGGAA | 0.432 |
| GATGAACA | -0.0375 |
| CTTGTTTC | -0.0304 |
| ATCTTCAT | 0.0807 |
| CCTCTCAC | -0.157 |
| CCCAAGTC | -0.101 |

| Sequence | PBM E-score |
| --- | --- |
| CACAGAAA | -0.0328 |
| GACTATGA | -0.11 |
| CGGCATAA | 0.296 |
| CTCAGGGC | -0.0882 |
| CTGCCTCC | 0.0802 |
| TTAACCAA | -0.136 |
| GAAACGCA | 0.0174 |
| GTAGGAAC | -0.191 |
| GAATACCA | 0.00717 |
| AAAGGGGC | -0.163 |
| AAGCCGGG | 0.229 |
| TCCCTACA | -0.00917 |
| CGTTGTGA | -0.0637 |
| CTTCCGCA | 0.198 |
| ACATATCA | -0.0989 |
| CTGGAAAG | -0.262 |
| CGAGTGGC | -4e-05 |
| CTATGGAA | -0.113 |
| ACCTTGGC | -0.104 |
| CAAACATG | -0.239 |
| CTTGGTTC | 0.0347 |
| ACGTCGTC | -0.0751 |
| CACAATAC | -0.0279 |

| Sequence | PBM E-score |
| --- | --- |
| AGCCAAAA | -0.223 |
| AGTTCGTA | 0.0596 |
| TGCGTCCA | -0.0912 |
| CCTGCACA | -0.173 |
| ATGCATAA | -0.242 |
| CCCGGTAC | 0.253 |
| CTTGGTGC | -0.247 |
| ATGCATCC | -0.024 |
| GAATCCTA | 0.0325 |
| AAAGCCTA | -0.184 |
| TCTCTTCA | -0.0515 |
| CTCCCCAG | -0.157 |
| ATGTGTTA | -0.168 |
| TAGGTGAA | 0.00725 |
| CTAGGGCA | -0.219 |
| AGTCTCGC | -0.176 |
| AACGGCAA | -0.0988 |
| GCGACCAA | 0.00386 |
| CGCGTAAA | -7e-05 |
| CATTCATA | 0.129 |
| ACCCTAAG | -0.173 |
